# Test results: the supplement of paper PMC8728848
# The list shows a part of the results.
# B1: Epa15 (Candida glabrata) (protein)
# chain: MGSSHHHHHHSSGLVPRGSHMASDPTTFPLGCSPEFTKTKKGLSMELYRYDYLPPGSYPCWDSAYLNPSYPRTGYKAKKLIATVDGVSGDINFKFNPKFGCKAIPDYLPSNFNYHEPITITNFTMILYGYFMPKTTAFHTFYVTADDLLFMNFGAGNAFDCCRREETADKFGNYAAYSVWGKKSLKNELTVYLHTGVYYPIRLFYNNRDYIAQLDIRFKTEHSNAIITNFTDYFYSVDDSSLGCPGLI
# What was measured:
# Test in all cases: glycan array binding signal (z-score within array); higher = stronger binding
# Conditions in all cases: glycan notation: IUPAC condensed, linker removed
# [1] = molecular target: Fuc(b1-3)GlcNAc
# In short: (§1)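 Glycan array data came from 3228 arrays in the Consortium for Functional Glycomics database, and only arrays with an available protein sequence were kept. Glycan names were put into IUPAC-condensed notation, and columns mapping to the same glycan were averaged. The binding signal is a within-array Z-score, averaged across arrays of one protein sequence run at different concentrations or buffers and across linkers. A negative Z-score can be read as non-binding.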
# [2] = molecular target: Gal(a1-2)Gal
# In short: as §1
# [3] = molecular target: Gal(a1-3)Gal
# In short: as §1
# [4] = molecular target: Gal(a1-3)Gal(b1-3)Glc
# In short: as §1
# [5] = molecular target: Gal(a1-3)Gal(b1-3)GlcNAc
# In short: as §1
# [6] = molecular target: Gal(a1-3)Gal(b1-3)GlcNAc(b1-2)Man
# In short: as §1
# [7] = molecular target: Gal(a1-3)Gal(b1-3)GlcNAc(b1-2)Man(a1-3)[Gal(a1-3)Gal(b1-3)GlcNAc(b1-2)Man(a1-6)]Man(b1-4)GlcNAc(b1-4)GlcNAc
# In short: as §1
# [8] = molecular target: Gal(a1-3)Gal(b1-3)GlcNAc(b1-3)GalNAc
# In short: as §1
# [9] = molecular target: Gal(a1-3)Gal(b1-3)GlcNAc(b1-6)GalNAc
# In short: as §1
# [10] = molecular target: Gal(a1-3)Gal(b1-3)[Fuc(a1-4)]GlcNAc(b1-2)Man(a1-3)[Gal(a1-3)Gal(b1-3)[Fuc(a1-4)]GlcNAc(b1-2)Man(a1-6)]Man(b1-4)GlcNAc(b1-4)GlcNAc
# In short: as §1
# [11] = molecular target: Gal(a1-3)Gal(b1-4)Glc
# In short: as §1
# [12] = molecular target: Gal(a1-3)Gal(b1-4)GlcNAc
# In short: as §1
# [13] = molecular target: Gal(a1-3)Gal(b1-4)GlcNAc(b1-2)Man
# In short: as §1
# [14] = molecular target: Gal(a1-3)Gal(b1-4)GlcNAc(b1-2)Man(a1-3)[Gal(a1-3)Gal(b1-4)GlcNAc(b1-2)Man(a1-6)]Man(b1-4)GlcNAc(b1-4)GlcNAc
# In short: as §1
# [15] = molecular target: Gal(a1-3)Gal(b1-4)GlcNAc(b1-3)GalNAc
# In short: as §1
# [16] = molecular target: Gal(a1-3)Gal(b1-4)GlcNAc(b1-6)GalNAc
# In short: as §1
# [17] = molecular target: Gal(a1-3)Gal(b1-4)[Fuc(a1-3)]GalNAc
# In short: as §1
# [18] = molecular target: Gal(a1-3)Gal(b1-4)[Fuc(a1-3)]GlcNAc
# In short: as §1
# [19] = molecular target: Gal(a1-3)Gal(b1-4)[Fuc(a1-3)]GlcNAc(b1-2)Man(a1-3)[Gal(a1-3)Gal(b1-4)[Fuc(a1-3)]GlcNAc(b1-2)Man(a1-6)]Man(b1-4)GlcNAc(b1-4)GlcNAc
# In short: as §1
# [20] = molecular target: Gal(a1-3)GalNAc
# In short: as §1
# [21] = molecular target: Gal(a1-3)GlcNAc
# In short: as §1
# [22] = molecular target: Gal(a1-3)[Gal(a1-4)]Gal(b1-4)GlcNAc
# In short: as §1
# [23] = molecular target: Gal(a1-4)Gal(b1-3)GlcNAc(b1-2)Man(a1-3)[Gal(a1-4)Gal(b1-3)GlcNAc(b1-2)Man(a1-6)]Man(b1-4)GlcNAc(b1-4)GlcNAc
# In short: as §1
# [24] = molecular target: Gal(a1-4)Gal(b1-4)Gal
# In short: as §1
# [25] = molecular target: Gal(a1-4)Gal(b1-4)GalNAc
# In short: as §1
# [26] = molecular target: Gal(a1-4)Gal(b1-4)Glc
# In short: as §1
# [27] = molecular target: Gal(a1-4)Gal(b1-4)GlcNAc
# In short: as §1
# [28] = molecular target: Gal(a1-4)Gal(b1-4)GlcNAc(b1-2)Man(a1-3)[Gal(a1-4)Gal(b1-4)GlcNAc(b1-2)Man(a1-6)]Man(b1-4)GlcNAc(b1-4)GlcNAc
# In short: as §1
# [29] = molecular target: Gal(a1-4)Gal(b1-4)GlcNAc(b1-3)Gal(b1-4)Glc
# In short: as §1
# [30] = molecular target: Gal(a1-4)GlcNAc
# In short: as §1
# [31] = molecular target: Gal(a1-6)Glc
# In short: as §1
# [32] = molecular target: Gal(b1-2)Gal
# In short: as §1
# [33] = molecular target: Gal(b1-3)Gal
# In short: as §1
# [34] = molecular target: Gal(b1-3)Gal(b1-4)GlcNAc
# In short: as §1
# [35] = molecular target: Gal(b1-3)GalNAc
# In short: as §1
# [36] = molecular target: Gal(b1-3)GalNAc(a1-3)[Fuc(a1-2)]Gal(b1-4)Glc
# In short: as §1
# [37] = molecular target: Gal(b1-3)GalNAc(a1-3)[Fuc(a1-2)]Gal(b1-4)GlcNAc
# In short: as §1
binder,measurement,setting,value
B1,glycan array binding signal (z-score),[1],-0.493
same,glycan array binding signal (z-score),[2],-0.455
same,glycan array binding signal (z-score),[3],0.122
same,glycan array binding signal (z-score),[4],-0.283
same,glycan array binding signal (z-score),[5],-0.097
same,glycan array binding signal (z-score),[6],1.8
same,glycan array binding signal (z-score),[7],0.477
same,glycan array binding signal (z-score),[8],0.478
same,glycan array binding signal (z-score),[9],0.468
same,glycan array binding signal (z-score),[10],1.85
same,glycan array binding signal (z-score),[11],0.031
same,glycan array binding signal (z-score),[12],0.059
same,glycan array binding signal (z-score),[13],0.183
same,glycan array binding signal (z-score),[14],1.1
same,glycan array binding signal (z-score),[15],-0.396
same,glycan array binding signal (z-score),[16],-0.059
same,glycan array binding signal (z-score),[17],-0.284
same,glycan array binding signal (z-score),[18],0.346
same,glycan array binding signal (z-score),[19],1.08
same,glycan array binding signal (z-score),[20],0.105
same,glycan array binding signal (z-score),[21],-0.278
same,glycan array binding signal (z-score),[22],0.6
same,glycan array binding signal (z-score),[23],0.999
same,glycan array binding signal (z-score),[24],-0.273
same,glycan array binding signal (z-score),[25],-0.255
same,glycan array binding signal (z-score),[26],0.168
same,glycan array binding signal (z-score),[27],0.525
same,glycan array binding signal (z-score),[28],-0.001
same,glycan array binding signal (z-score),[29],-0.118
same,glycan array binding signal (z-score),[30],0.35
same,glycan array binding signal (z-score),[31],-0.18
same,glycan array binding signal (z-score),[32],-0.012
same,glycan array binding signal (z-score),[33],0.79
same,glycan array binding signal (z-score),[34],0.625
same,glycan array binding signal (z-score),[35],0.487
same,glycan array binding signal (z-score),[36],0.181
same,glycan array binding signal (z-score),[37],-0.431
